Source: PubChem BioAssay (Tox21)
Where “and” joins values, the source holds several entries; their conditions need not be identical. Identical values can stand only once. The shares of active, inactive and inconclusive entries below differ from those in the screen. A potency beside an inconclusive call is a rough fit, not a confirmed value. Some compounds were tested as several samples or in several runs, with calls that do not always agree. Calls of active or inactive are those of the source. Calls come from the whole dose curve; as a rule, active = well fitted activation curve with a large enough effect in the repeat runs; inconclusive = weak or mixed curves; inactive = flat fitted curve, though single readings scatter. Peptide text beside a SMILES is read from it.

Experiment: Caspase-3/7 induction in CHO-K1 cells by small molecules, qHTS assay (AID 1346980); note: nearly all actives have a fitted effect of over 15% in size
Conditions: CHO-K1 caspase-3/7 induction, Caspase-Glo luminescence, 17 h; series mostly up to 92.4 µM
Outline: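 Luminescent Caspase-Glo 3/7 read (30min, room temperature) quantified apoptosis induction. Cells were wild-type CHO-K1, treated with compound for 17hr at 37 C and 5% CO2.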
% is set by controls: 0 for no effect and ±100 for the full control effect; potency is the fitted concentration of half-maximal effect; tags give direction and shape of the fitted curve.

Question: Which Potency does the source give for `CCCCCCCCOC(=O)c1cc(O)c(O)c(O)c1` here?
Answer: active: 1.54 µM

Question: With `CC(C)(C)CC(C)(C)c1ccccc1O` as the compound, how does the Potency read?
Answer: inconclusive: 34.6 µM [activator, partial curve]

Question: With `CC1CC(OC(=O)c2ccccc2O)CC(C)(C)C1` (centres undefined) as the compound, how does the Potency read?
Answer: inconclusive: 67.9 µM [activator]

Question: For `CCOC(=O)O[C@H](C)OC(=O)c1ccc2c(c1)cc(C(=O)NC1CCN(C(C)C)CC1)n2Cc1cc(-c2ccc(Cl)s2)on1`, which Potency is on record?
Answer: inconclusive: 14.3 µM [activator, single point]

Question: With `CSc1ccc2c(c1)N(CCC1CCCCN1C)c1ccccc1S2` (centres undefined) as the compound, how does the Potency read?
Answer: active: 19.3 µM and inconclusive: 33.5 µM [activator, single point]

Question: With `CCCCCC(=O)O[C@]1(C(C)=O)CC[C@H]2[C@@H]3CCC4=CC(=O)CC[C@]4(C)[C@H]3CC[C@@]21C` as the compound, how does the Potency read?
Answer: inconclusive: 76.4 µM [activator, partial curve, poor fit]

Question: For `CCCCCCCCNC(C)C(O)c1ccc(SC(C)C)cc1` (centres undefined), which Potency is on record?
Answer: inconclusive: 13.3 µM [activator, single point]

Question: For `COC(=O)[C@H](Cc1ccccc1)NC(=O)[C@@H](N)CC(=O)O` (H-Asp-Phe-OMe), which Potency is on record?
Answer: inactive

Question: For `CC1=C(/C=C/C(C)=C/C=C/C(C)=C\C=O)C(C)(C)CCC1`, which Potency is on record?
Answer: inconclusive: 64.9 µM [activator, single point]

Question: For `CC/C(=C(\c1ccccc1)c1ccc(OCCN(C)C)cc1)c1ccccc1`, which Potency is on record?
Answer: inconclusive: 54.4 µM [activator, partial curve] [middle of 4 runs]

Question: With `Cc1cc(O)c(C(C)(C)C)cc1C(C)(C)C` as the compound, how does the Potency read?
Answer: inconclusive: 30.6 µM [activator, partial curve]

Question: Which Potency does the source give for `Oc1c(Cl)cc(Cl)c(Cl)c1Cc1c(O)c(Cl)cc(Cl)c1Cl` here?
Answer: inconclusive: 76.7 µM [activator, single point]

Question: With `NC(=O)C1(N2CCCCC2)CCN(CCCN2c3ccccc3CCc3ccc(Cl)cc32)CC1` as the compound, how does the Potency read?
Answer: inconclusive: 33.5 µM [activator, single point]

Question: Which Potency does the source give for `C#C[C@]1(O)CC[C@H]2[C@@H]3CCC4=CC(=O)CC[C@@H]4[C@H]3CC[C@@]21CC` here?
Answer: inactive

Question: Which Potency does the source give for `CC1=C(/C=C/C(C)=C/C=C/C(C)=C/C(=O)Nc2ccc(O)cc2)C(C)(C)CCC1` here?
Answer: inconclusive: 70.3 µM [activator, single point] and inconclusive: 33.5 µM [activator, single point]

Question: With `N#Cc1nc(Cl)c(Cl)c(Cl)c1Cl` as the compound, how does the Potency read?
Answer: inconclusive: 0.969 µM [activator, single point]

Question: For `CC(C)(C)c1ccc(O)c(C(C)(C)C)c1`, which Potency is on record?
Answer: inconclusive: 43.1 µM [activator, partial curve] and inconclusive: 48.6 µM [activator, partial curve]

Question: For `CC(C)(C)NC(=O)[C@@H]1C[C@@H]2CCCC[C@@H]2CN1C[C@@H](O)[C@H](Cc1ccccc1)NC(=O)[C@H](CC(N)=O)NC(=O)c1ccc2ccccc2n1`, which Potency is on record?
Answer: active: 61.9 µM

Question: Which Potency does the source give for `Cc1cc(F)ccc1-c1cc(N2CC[C@@H](O)[C@H]2CO)ncc1N(C)C(=O)C(C)(C)c1cc(C(F)(F)F)cc(C(F)(F)F)c1` here?
Answer: active: 38 µM

Question: For `Clc1ccccc1C(c1ccccc1)(c1ccccc1)n1ccnc1`, which Potency is on record?
Answer: inconclusive: 48.6 µM [activator, partial curve, poor fit]

Question: With `CC(C)(c1cc(Br)c(O)c(Br)c1)c1cc(Br)c(O)c(Br)c1` as the compound, how does the Potency read?
Answer: inconclusive: 68.3 µM [activator, single point] and inconclusive: 27.2 µM [activator, partial curve] and inconclusive: 57.9 µM [activator]

Question: For `CN1CCN(CCCN2c3ccccc3Sc3ccc(C(F)(F)F)cc32)CC1`, which Potency is on record?
Answer: inconclusive: 33.5 µM [activator, single point]

Question: For `Clc1ccc(C(c2ccccc2Cl)C(Cl)Cl)cc1` (centres undefined), which Potency is on record?
Answer: inconclusive: 68.6 µM [activator, single point]

Question: For `CCCCCCCCCCn1cc[n+](CCCCCCCCCC)c1C`, which Potency is on record?
Answer: inconclusive: 30.7 µM [activator, single point]

Question: With `CCCCCCCCCCCCN` as the compound, how does the Potency read?
Answer: inconclusive: 27.3 µM [activator, single point]

Question: For `CCCCCCCCCCCCc1ccccc1O`, which Potency is on record?
Answer: active: 60.3 µM and active: 68.6 µM

Question: Which Potency does the source give for `CCCCCCCC/C=C/CCCCCCCC1=NCCN1CCO` here?
Answer: inconclusive: 61.1 µM [activator, partial curve, poor fit]

Question: For `CCCOc1sc(C(=O)N2CCC(c3cc(CN)ccc3F)CC2)c(C)c1Br`, which Potency is on record?
Answer: inconclusive: 25 µM [activator, single point]

Question: For `CCN=c1cc2oc3cc(NCC)c(C)cc3c(-c3ccccc3C(=O)OCC)c-2cc1C`, which Potency is on record?
Answer: active: 43.1 µM and active: 48.6 µM
